# Assay results reported in the supplement of paper PMC3334620.
# In all, about 33,000 sequences were measured (“E-score (-0.5 to 0.5)”: median about -0.035, highest 2% from about 0.34 on). This is one part of the list.
# Target: T1, Mot3 (UniProt P54785)
# T1 sequence: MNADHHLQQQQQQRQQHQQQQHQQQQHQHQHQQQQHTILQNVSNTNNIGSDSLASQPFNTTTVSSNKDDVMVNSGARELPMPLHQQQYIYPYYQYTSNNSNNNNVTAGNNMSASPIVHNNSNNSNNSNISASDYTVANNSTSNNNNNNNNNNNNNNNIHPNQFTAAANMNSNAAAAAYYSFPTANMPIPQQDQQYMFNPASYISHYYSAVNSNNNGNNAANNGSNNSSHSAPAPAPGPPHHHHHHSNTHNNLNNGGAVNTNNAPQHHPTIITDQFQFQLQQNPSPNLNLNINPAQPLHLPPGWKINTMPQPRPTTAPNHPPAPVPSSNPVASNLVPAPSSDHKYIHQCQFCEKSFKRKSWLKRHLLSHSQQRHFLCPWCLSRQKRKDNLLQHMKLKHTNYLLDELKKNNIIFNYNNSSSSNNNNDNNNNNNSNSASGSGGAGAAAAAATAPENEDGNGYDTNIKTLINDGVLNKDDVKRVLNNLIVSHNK
# Experiment: PBM E-score (8-mer binding enrichment) (E-score (-0.5 to 0.5)); higher = stronger / more preferred TF binding; most listed sequences are background and not binding sites
# Details: protein concentration: 200 nM; construct: GST-full length
# How it was run: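 Universal all-10-mer Agilent arrays, double-stranded by primer extension on fresh or once-stripped slides, were probed with about 100-200 nM GST-tagged yeast transcription factors made by PURExpress. Fluorescent anti-GST detected bound protein, and masliner normalised the scans. E-scores from the Universal PBM Analysis Suite were given to each ungapped eight-base word pooled with its reverse complement.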
row,Sequence,PBM E-score
1,CGTGACAC,-0.0532
2,AAAGCGGG,-0.0616
3,GCAACGAC,-0.00281
4,CTCATGTA,0.359
5,AATCGAAA,-0.14
6,AGTTTGTA,0.204
7,GAGACCAC,0.0974
8,CGATCGGA,-0.154
9,CCGACTCA,-0.35
10,CAAGAGTA,0.116
11,ATTTGAAG,-0.118
12,GACCTACC,-0.119
13,ATACCAGC,-0.225
14,AGGTTGAT,-0.099
15,CGTATTCA,0.234
16,ATATCGAC,-0.0551
17,CGATTACG,0.123
18,GCCACGGA,-0.162
19,AACAACTT,0.126
20,CTCCCATC,-0.138
21,CAGAGACA,-0.0179
22,ACACCTCT,0.0285

row,Sequence,PBM E-score
1,ATTAGTAG,0.196
2,GACTATCC,-0.248
3,TTATGAAA,0.0346
4,AGCTCGTC,-0.286
5,GCTGCAAA,-0.025
6,GAATTAGA,-0.0571
7,ACACTTTG,0.168
8,ACAACTTC,0.0756
9,CGGCCTCA,-0.0433
10,AGGACCCC,-0.273
11,CGGGCCCA,-0.0941
12,CCGATTCA,-0.199
13,CAACGACC,-0.124
14,GTGGGAAA,-0.148
15,ATTAGACC,-0.114
16,CCGCAAAA,0.00107
17,CTCACCCA,-0.181
18,CCGGGTAC,-0.053
19,TAGCACGA,-0.0559
20,ACCTCTTG,-0.0648
21,TGCTACCA,-0.0584
22,CTACACTC,0.0954

row,Sequence,PBM E-score
1,AACCCGAA,0.0529
2,TAGCGAGA,-0.181
3,CCGATGCC,-0.069
4,ATTTGCGG,-0.113
5,CACTCCGG,-0.00794
6,CAATCCTG,0.132
7,CGCCGGAC,-0.2
8,ATGGCTGA,-0.158
9,AATCGAAG,0.0585
10,AGACCCGA,-0.0367
11,CCGCGTCA,0.109
12,AGCCTAGC,-0.141
13,AACCCTCT,-0.172
14,CCCAACAA,0.0799
15,AGCATGCT,0.0528
16,CGACACAG,0.0362
17,GGTCTCAA,-0.305
18,ATTATTAG,-0.00718
19,GTCGTCAC,-0.168
20,ACGGTGAA,0.0364
21,GCCTGTGA,0.283
22,CCTAAACC,-0.0693

row,Sequence,PBM E-score
1,CTAGATCC,-0.159
2,ATTAGGTC,-0.0698
3,AGCACTTA,-0.128
4,CTACGTTA,0.217
5,TAGTACTA,-0.00966
6,GTTGTTCA,0.133
7,GAATTAAA,0.133
8,ACCGCCGG,-0.387
9,CCAGTTTC,-0.206
10,TTCTCAAA,0.0418
11,TCCAAGAA,-0.132
12,CCACGGAG,-0.164
13,AAGCTAAG,-0.0161
14,CACCCAGG,0.0846
15,CACATACA,0.239
16,CAAACTTA,0.179
17,ATTTTGGG,-0.162
18,CTAAACCC,0.058
19,CACCACGG,-0.0505
20,AAGCTTAA,0.099
